# From the supplement of paper PMC3334620
# In all, about 33,000 sequences were measured (“E-score (-0.5 to 0.5)”: median about -0.04, highest 2% from about 0.36 on). The list shows a part of the results.
# Target: T1, Hmlalpha2 (UniProt P0CY09)
# T1 sequence: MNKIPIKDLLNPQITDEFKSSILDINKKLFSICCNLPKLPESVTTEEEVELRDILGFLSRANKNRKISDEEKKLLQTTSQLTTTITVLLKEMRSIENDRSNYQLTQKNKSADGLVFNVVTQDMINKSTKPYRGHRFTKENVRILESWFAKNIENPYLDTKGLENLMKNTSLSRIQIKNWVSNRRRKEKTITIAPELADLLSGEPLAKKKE
# Experiment: PBM E-score (8-mer binding enrichment) (E-score (-0.5 to 0.5)); higher = stronger / more preferred TF binding; most listed sequences are background and not binding sites
# Conditions: protein concentration: 200 nM; construct: GST-full length
# Description: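 Universal 'all 10-mer' protein binding microarrays (Agilent AMADID 015681) probed with GST-tagged S. cerevisiae TFs (full-length or DBD) made by in vitro transcription/translation (PURExpress), about 100-200 nM. Bound TF was detected with fluorescent anti-GST. Each ungapped 8-mer (which stands for itself and its reverse complement) is scored by the PBM enrichment score (E-score), a modified Wilcoxon-Mann-Whitney statistic from -0.5 to +0.5, computed with the Universal PBM Analysis Suite. Scale: above 0.35 generally sequence-specific binding.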
row,Sequence,PBM E-score
1,CAGCTTCC,-0.209
2,GGCGCCAC,-0.281
3,CATCGATA,0.0588
4,CACCCGCA,-0.203
5,AACAACAT,0.385
6,GCGCTTAC,0.106
7,AGTGTAGG,0.206
8,TGCGGACA,-0.129
9,GGGCTACA,-0.0145
10,ACTCAAGT,0.139
11,AGATTTTG,0.102
12,CACAGAGC,0.0994
13,GACATAAC,0.297
14,CTTAGCAA,-0.0443
15,CACGTGCA,0.14
16,GAAATTCA,0.119
17,ACTGATTC,-0.0255
18,AACCTATG,0.192
19,AGCTTAAA,-0.0456
20,CGGTAAGC,-0.243
21,CCGCAAGC,-0.308
22,GTCGCGAC,0.182
23,GGACCTCA,-0.226
24,GCTTCAAA,-0.147
25,ATGAGGGC,-0.113

row,Sequence,PBM E-score
1,AGAACATC,-0.0378
2,ACAAAGGC,0.102
3,AATGTGCG,0.254
4,AACGTGCC,0.142
5,CTAACTTC,0.105
6,AGCTTCTG,-0.211
7,GGCACTGA,-0.127
8,CAGGGCCC,-0.132
9,CGTATTTA,0.342
10,AGGCTACA,0.0137
11,ACTCTCAA,0.0186
12,AAGGTTAG,-0.0235
13,CGATCAGC,-0.158
14,AGATCCCG,-0.123
15,GGCCAGTA,-0.168
16,CACCTCTA,0.0274
17,CTGTTAAC,0.304
18,CCTTACCA,-0.0702
19,CCAGCACC,-0.32
20,ACTTAAAG,-0.0171
21,ACCACCCC,-0.312
22,AATGTTAT,0.291
23,TAAACAAA,0.223
24,CGGCTTGA,-0.122
25,CAACGCCC,0.00637

row,Sequence,PBM E-score
1,CTACAATC,0.241
2,CAATACAG,0.0335
3,ATCGCGTG,0.192
4,CCGACAGG,-0.239
5,CGGATATA,0.116
6,CTTTGGAA,0.0565
7,CGCTGCTC,-0.0414
8,CCTTAATC,-0.172
9,AAATTCGC,0.0425
10,ACAGGAGA,-0.0408
11,ACAGGATG,0.164
12,CATCCGAC,0.0189
13,ACTCCCAG,-0.152
14,TGGGAGAA,-0.171
15,ATCAGCCG,-0.133
16,ACATCCGC,0.198
17,AGCCCTAC,-0.0891
18,GTGTTGCA,0.187
19,CTATTAAC,0.32
20,CAATAGCG,-0.11
21,ATAAGGAA,-0.0657
22,GGGATTAA,0.128
23,AGAAATCT,-0.0254
24,GACATGCC,0.212
25,GTCATCTA,0.123

row,Sequence,PBM E-score
1,TTATACAA,0.319
2,ATTGACTG,0.0173
3,ATTTTCGG,-0.114
4,CATCTCCA,-0.104
5,CCGGGACG,-0.23
6,CGCTGTAA,0.244
7,ACGAACAT,0.22
8,ACACATTG,0.233
9,CTTCTGGA,-0.19
10,AGAATTCA,-0.0407
11,AGGGCCAG,-0.22
12,TGCTTCCA,-0.0285
13,ACTGCAGT,-0.0817
14,ACTCCCAT,0.068
15,GGCCTCCC,-0.455
16,GCTTCTGA,-0.144
17,GGAACTTA,-0.0598
18,AGACATGA,0.275
19,AAGAGCGT,-0.0152
20,GCTACGCA,0.0474
21,ATTCACAC,0.264
22,GTGAGCAA,-0.0735
23,GCGATGCC,-0.117
24,GAGTCAGC,-0.236
25,CCTAGGAC,-0.191

row,Sequence,PBM E-score
1,CCCCTCAC,-0.292
2,ACAAATCG,-0.0119
3,AAGATAGG,-0.196
4,AGCATATG,-0.132
5,AAGGCCCG,-0.217
6,ATTGGGGC,-0.183
7,CTTATCGA,0.0368
8,TAAACCCA,0.0925
9,GTCTATAA,0.0897
10,CATGAGGC,-0.166
11,ACACTATA,0.117
12,GGTATATA,0.189
13,AGCTCCAT,-0.108
14,ATCAACAG,0.136
15,AGATAGAA,-0.166
16,ACAGGGAC,-0.0336
17,CTCCGTGC,-0.157
18,CATGCGAC,0.0966
19,CAAATTTA,0.212
20,GAGCACAA,-0.0331
21,ACTCGTCC,-0.0333
22,CCGCCGCC,-0.199
23,AATTGGAG,-0.163
24,GCAAGCAA,0.0131
25,CTTCGAAG,-0.327

row,Sequence,PBM E-score
1,GATCGTGC,0.0557
2,CACCAGAC,-0.0592
3,GAAAAGCA,-0.106
4,AACGGTAG,-0.0836
5,GCACTGGC,-0.209
6,ATGCTTAC,-0.0445
7,TACATTCA,0.277
8,CCACCGCA,-0.259
9,TACAGACA,0.227
10,CCCGCGCA,-0.00907
11,TGACGACA,0.199
12,GGTTTTAC,0.246
13,CCTTCCGA,-0.19
14,CCCCTACA,0.112
15,ACGCAAAA,0.145
16,AGTTTCAT,0.0534
17,GCAGCATA,-0.228
18,ATCCTCAG,-0.00817
19,CGCCTCGA,0.0285
20,AACAAAGC,0.34
21,ATCTTGTG,-0.0105
22,AAGGAAGT,0.0223
23,CATAACCG,0.0165
24,CCCCGGCC,-0.197
25,ACGCGAGG,0.0423

row,Sequence,PBM E-score
1,AAGCGGTA,0.0508
2,CCTCTATC,-0.0831
3,AGTGTCAT,0.172
4,AAGATAAA,0.288
5,CTCATCAG,0.0334
6,GCTTCACC,-0.188
7,AGGATTTA,0.0207
8,CAGCGTGA,-0.0105
9,AGGACCGA,-0.157
10,TCTCCCAA,-0.192
11,ATGTTTAG,0.33
12,GACGAAAC,-0.0357
13,ACATTCCC,0.157
14,AGTGTGGA,-0.073
15,ATACCCAC,-0.0577
16,ATTCGACG,-0.00029
17,TATTCAAA,0.209
18,AGGTTTGC,0.0445
19,ACTATGGC,0.0658
20,GGTGCGCA,-0.0643
21,ACAGATGT,0.0786
22,GCGCGCGA,-0.0185
